Data reported in the supplement of paper PMC4206461.
This is one part of the list.

test system: Pseudomonas aeruginosa PA14 dppA1-A5 penta deletion mutant; assay: respiration area under curve with compound as sole nitrogen source, 24 h (OmniLog AUC (arbitrary units)); higher = more respiration / better utilisation as nitrogen source, active = 2000 or more; extreme values may be limits of the assay; settings: plate: PM6
Experimental: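 Biolog Phenotype MicroArray plates PM6-PM8: each di/tripeptide is the sole nitrogen source. Tetrazolium reduction was read in the OmniLog for 24 h at 37°C and summarised as area under the respiration curve (arbitrary units). Values below 2000 count as no respiration.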

Row | SMILES | respiration area under curve
1 | CC[C@H](C)[C@H](N)C(=O)N[C@@H](Cc1ccccc1)C(=O)O | inactive: 1100
2 | CC[C@H](C)[C@H](NC(=O)[C@@H](N)CC(C)C)C(=O)O | active: 5380
3 | CC(C)[C@H](NC(=O)[C@@H](N)CCC(=O)O)C(=O)O | inactive: 130
4 | CC(C)C[C@H](N)C(=O)N[C@@H](CCCN=C(N)N)C(=O)O | active: 10300
5 | CSCCC(NC(=O)C(N)CC(C)C)C(=O)O (stereo not given) | inactive: 1800
6 | N[C@@H](CCC(=O)O)C(=O)N[C@@H](CCC(=O)O)C(=O)O | inactive: 0
7 | NCC(=O)N[C@@H](Cc1c[nH]c2ccccc12)C(=O)O | inactive: 289
8 | NC(N)=NCCC[C@H](N)C(=O)N[C@@H](CO)C(=O)O | active: 9420
9 | N[C@@H](CC(=O)O)C(=O)N[C@@H](Cc1c[nH]c2ccccc12)C(=O)O | active: 2450
10 | C[C@H](N)C(=O)N[C@@H](CCC(=O)O)C(=O)O | active: 4310
11 | C[C@H](NC(=O)[C@@H](N)CCCN=C(N)N)C(=O)O | active: 9930
12 | CC(C)CC(N)C(=O)NC(CC(=O)O)C(=O)O (stereo not given) | active: 2380
13 | NC(N)=NCCC[C@H](N)C(=O)N[C@@H](Cc1ccc(O)cc1)C(=O)O | active: 9880
14 | CC[C@H](C)[C@H](N)C(=O)N[C@@H](CO)C(=O)O | inactive: 539

same assay, conditions: plate: PM7

Row | SMILES | respiration area under curve
15 | N[C@@H](Cc1ccccc1)C(=O)NCC(=O)O | active: 2400
16 | O=C(O)[C@H](Cc1ccc(O)cc1)NC(=O)[C@@H]1CCCN1 | active: 10100
17 | CC(C)C[C@H](N)C(=O)N[C@H](C(=O)O)C(C)C | active: 9740
18 | CSCC[C@H](N)C(=O)N[C@@H](CC(C)C)C(=O)O | inactive: 1440
19 | CC(C)C[C@H](NC(=O)[C@@H]1CCCN1)C(=O)O | inactive: 1330
20 | CC(C)C[C@H](NC(=O)[C@@H](N)Cc1ccc(O)cc1)C(=O)O | active: 6690
21 | CC(C)[C@H](N)C(=O)N[C@@H](CC(N)=O)C(=O)O | active: 7070
22 | CC(C)[C@H](N)C(=O)NCC(=O)O | inactive: 1070
23 | N[C@@H](CO)C(=O)N1CCC[C@H]1C(=O)O | inactive: 0
24 | CSCC[C@H](N)C(=O)NCC(=O)O | inactive: 732
25 | N[C@@H](Cc1c[nH]c2ccccc12)C(=O)N[C@@H](CO)C(=O)O | inactive: 938
26 | C[C@H](NC(=O)[C@@H](N)Cc1c[nH]c2ccccc12)C(=O)O | active: 2340
27 | CSCCC(N)C(=O)NC(CCCN=C(N)N)C(=O)O (stereo not given) | active: 13900

same assay, conditions: plate: PM8

Row | SMILES | respiration area under curve
28 | C[C@@H](N)C(=O)NCC(=O)NCC(=O)O | inactive: 37.9
29 | NCC(=O)N[C@H](CO)C(=O)O | inactive: 0
30 | CC(C)[C@H](NC(=O)[C@@H](N)Cc1ccccc1)C(=O)O | active: 4780
31 | N[C@@H](CC(=O)O)C(=O)NCC(=O)O | inactive: 1.29
32 | NCC(=O)N[C@@H](Cc1ccccc1)C(=O)N[C@@H](Cc1ccccc1)C(=O)O | active: 4510
33 | N[C@@H](Cc1ccccc1)C(=O)N[C@@H](CC(=O)O)C(=O)O | inactive: 0
34 | CC(C)[C@H](NC(=O)[C@@H](N)Cc1c[nH]c2ccccc12)C(=O)O | inactive: 357
35 | NCC(=O)NCC(=O)NCC(=O)O | inactive: 51
36 | C[C@H](N)C(=O)N[C@@H](C)C(=O)N[C@@H](C)C(=O)O | active: 7240
37 | C[C@H](O)[C@@H](NC(=O)CN)C(=O)O | inactive: 0
38 | NC(=O)C[C@H](NC(=O)[C@@H]1CCCN1)C(=O)O | active: 6320
39 | NC(N)=NCCC[C@H](NC(=O)[C@@H]1CCCN1)C(=O)O | active: 8420
40 | C[C@H](NC(=O)[C@@H](N)CCC(=O)O)C(=O)O | inactive: 9.14
